#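 Briefly, cells in 96-well plates were exposed to five compound concentrations for 48 h, and endpoints were estimated by linear interpolation. GI50: concentration for 50% inhibition of growth.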 Activity calls are given as the source filed them. No stated cut-off is given here; in the data, active = GI50 up to about 1.1 µM and inactive = higher. Peptide text beside a SMILES is read from it.
# Tested on: NCI-H322M
# Experiment: NCI tumour cell line growth inhibition, 48 h
row,Compound,GI50
1,CC1=C(C)C(=O)c2c(cc3ccccn23)C1=O,inactive: 20.4 µM
2,CCOC(=O)c1c(N2CCCC2)nsc1Nc1ccc(F)cc1,inactive: 75.3 µM
3,CC(=O)NNc1nc(C)c(C(/C=C/c2ccc(Cl)cc2)=N/NC(=O)C[N+](C)(C)C)s1,inactive: > 100 µM
4,CCN(CC)c1ccc(C2N3CCCCC3[C@@H]3c4[nH]c5ccccc5c4CCN23)cc1 (stereo not given in full),inactive: 50.4 µM
5,CC(C)C[C@H](NC(=O)[C@H](CC(C)C)NC(=O)[C@@H](Cc1c[nH]c2ccccc12)NC(=O)[C@H](Cc1ccccc1)NC(=O)[C@@H](Cc1c[nH]c2ccccc12)NC(=O)[C@H](CCC(N)=O)NC(=O)[C@H](CCC(N)=O)NC(=O)[C@H]1CCCN1C(=O)[C@@H](N)CCCCN)C(N)=O (HELM PEPTIDE1{K.[dP].Q.Q.[dW].F.[dW].L.L.[am]}$$$$V2.0),inactive: > 100 µM
6,COc1ccc(C2Oc3c(cccc3OC)C=C2[N+](=O)[O-])cc1OC (stereo not given),inactive: 17.2 µM
7,O=c1cc(-c2ccccc2)[nH]c2ccc(N3CCOCC3)cc12,active: 0.031 µM
8,Cc1nnc(N)nc1C/C=C/C(Sc1ccc(Cl)cc1)c1ccccc1 (stereo not given),inactive: 4.71 µM
9,COc1cc2nc(Cl)nc(NS(=O)(=O)c3cc4ccccc4s3)c2cc1OC,inactive: 19.6 µM
10,COC(=O)/C=C1/N=C(N(C)/N=C/c2ccccc2)NC1=O,inactive: > 100 µM
11,CC(=O)O[C@@H]1CO[C@H]2O[C@H]3[C@@H](C(C=O)=C[C@H](O)[C@@H]4C5=C(C(C)C)CC[C@]5(C)CC[C@@]34C)[C@@]2(O)C1=O [STRIATIN E],active: 0.975 µM
12,c1nnc(NCNc2nncs2)s1,inactive: 31.8 µM
13,NC(c1ccccc1)(C(F)(F)F)P1(=O)OC(=O)c2ccccc2O1 (stereo not given),inactive: 35.2 µM
14,COc1cccc(/N=C/c2cc(OC)c(OC)c(OC)c2)c1,inactive: > 100 µM
15,NC1CC(=O)c2c1sc(Cl)c2Cl (stereo not given),inactive: > 100 µM
16,CC(O)c1c2c(cc3c1CC1(C3)Cc3cc4c(c(C(C)O)c3C1)CCC4)CCC2 (stereo not given),inactive: 22.6 µM
17,COc1ccc(/C=C2\CC3C4CC=C5C[C@@H](N6CCCC6)CC[C@]5(C)C4CC[C@]3(C)[C@H]2O)cc1OC (stereo not given in full),inactive: 9.33 µM
18,COc1cc(/C=C2\C(=O)N(c3ccccc3Cl)C(c3ccccc3)S2(=O)=O)cc(OC)c1OC (stereo not given),inactive: 46.5 µM
19,CCc1cccc(C)c1NC(=O)C(=O)CC(=O)c1ccc(Cl)s1,inactive: > 100 µM
20,Cc1ccc(C)c(N2C(=O)C(=O)C(c3nc4ccccc4o3)/C(=N/N)C2=O)c1 (stereo not given),inactive: > 100 µM
21,COc1ccc2[nH]c3c(C)c4c(c(C)c3c2c1)CN(C)C=C4,inactive: 1.38 µM
22,[N-]=[N+]=NCc1nc(N)c2c3c(sc2n1)CCCC3,inactive: 10.2 µM

row,Compound,GI50
1,O=C1CCC(c2ccccc2)=NN1c1nc2ccccc2s1,inactive: 40.3 µM
2,O=C1C=C(N2CCCC2)C=C(N2CCCC2)C1,inactive: > 100 µM
3,CC1=C(C(=O)Nc2ccc(Cl)c(Cl)c2)C(c2ccco2)C(C(=O)Nc2ccc(Cl)c(Cl)c2)=C(C)N1,inactive: 12.5 µM
4,Cc1ccccc1/N=N/c1ccc(N/N=C2/CCCNC2=O)c(C)c1,inactive: > 100 µM
5,COC(=O)C(C)(Cc1ccc2c(c1)nnn2C(C)=O)NC(C)=O (stereo not given),inactive: > 100 µM
6,CC1(C)C(=NN=C(N)N)C(C)(C)C1=NN=C(N)N,inactive: > 100 µM
7,NC1(C(=O)O)CCCC1C(=O)O (stereo not given),inactive: > 100 µM
8,CC1(C)N/C(=C\[N+](=O)[O-])C(C)(C)N1O,inactive: > 10 µM
9,CC(C)[C@H](CCl)NC(=O)c1cccc(C(=O)N[C@H](CCl)C(C)C)n1 (stereo in doubt),inactive: > 100 µM
10,CC(C)C1CC2C(=O)N(c3ccccc3)C(=O)C2c2[nH]c3ccccc3c21 (stereo not given),inactive: 66.2 µM
11,O=C1C=CC(=O)c2c(Cl)ccc(O)c21,inactive: 28.6 µM
12,COc1ccccc1NC(=O)CC(=O)NNCC(=O)Nc1nc(-c2ccccc2)cs1,inactive: > 100 µM
13,CCOC(=O)c1ccc(Nc2nc3ccc(C(F)(F)F)cc3nc2C(=O)OCC)cc1,inactive: > 100 µM
14,Sc1ccc2ccccc2c1CNCc1ccccc1,inactive: 20.9 µM
15,COc1ccc(N(C)CN(C)c2nc(N(C)C)nc(N(C)C)n2)cc1,inactive: > 100 µM
16,COC(=O)[C@]1(C)[C@H]2C[C@H]3O[C@H]4[C@H](O)[C@@H](O)OC(CC(O)C(C5=CC(=O)OC5)C(C5=CC(=O)OC5)C(O)CC56CCCCC7[C@@H](C)[C@H](C[C@H]8[C@](C)(C(=O)OC)[C@H](O)CC[C@]78C)O[C@H]([C@@H](O)[C@H](O)O5)[C@H]6O)(CCCCC([C@@H]3C)[C@]2(C)CC[C@@H]1O)[C@H]4O (stereo not given in full),active: 0.0476 µM
17,c1ccc(CCCNc2nnnc3ccccc23)cc1,inactive: > 100 µM
18,N/C(=N\N=C=C1C(=O)Nc2ccc(F)cc21)NO,inactive: > 100 µM
19,C=C(C)[C@H]1C2=CC(C(=O)OC)=C(C[C@H](C(=C)C)[C@@H](O)[C@@H](O)C3=C[C@H]1OC3=O)O2,inactive: > 100 µM
20,CCn1c(=O)c2c3ccc(OC(C)=O)cc3[nH]c2c2ccc(OC(C)=O)cc21,inactive: 26.2 µM
21,CC(C)(C)c1cc(-c2cc(C(C)(C)C)n(-c3ccccc3)n2)nn1-c1ccccc1,inactive: > 100 µM
22,Cc1ccc2nc(-c3ccc(N4C(=O)C(Cl)C4c4ccc(Cl)cc4)cc3)sc2c1 (stereo not given),inactive: 19 µM

row,Compound,GI50
1,CCCCCCCCC/C=C1/CC(CO)(COC(=O)CC(C(C)C)C(C)C)OC1=O (stereo not given),inactive: 12.7 µM
2,O=C(O)C(Cc1cc(I)c(O)c(I)c1)C1CCCCC1 (stereo not given),inactive: 39.5 µM
3,COc1ccc(N2C(=O)C3ON(Cc4ccc(CC(N)=O)cc4)C(c4c5ccccc5c(C)c5ccccc45)C3C2=O)cc1 (stereo not given),inactive: 43.1 µM
4,C#C/C=C\CCCC/C=C\C#CC#CCCCC#CC#C[C@H](COS(=O)(=O)O)OS(=O)(=O)O,inactive: > 100 µM
5,CCOC(=O)[C@@H]1[C@@H](c2ccccc2)N(C)O[C@@]1(c1ccccc1)C(F)(F)F,inactive: > 100 µM
6,CC1C(=O)CC[C@@]2(C)C(=O)CCCC12O (stereo not given in full),inactive: > 100 µM
7,c1ccc(C/C(=N\Nc2nc3ccccc3[nH]2)c2ccccn2)cc1,active: 0.041 µM
8,Oc1ccc(-c2nc(-c3cccnc3)c(-c3ccc(Cl)cc3)[nH]2)cc1O,inactive: 20.2 µM
9,O=[N+]([O-])c1ccc(C2SCc3nc4ccccc4n32)cc1 (stereo not given),inactive: > 100 µM
10,O=C(CNc1ccc(Cl)cc1)Nn1c(-c2ccccc2)nc2ccccc2c1=O,inactive: 15.3 µM
11,CN1C(=O)C2CCCC(=O)N2c2cccnc21 (stereo not given),inactive: > 100 µM
12,O=[N+]([O-])c1nccn1CCCNCCCn1ccnc1[N+](=O)[O-],inactive: > 100 µM
13,N#Cc1nc(COCCOCc2ccccc2)oc1N,inactive: > 100 µM
14,O=C(NCCNCCNC(=O)c1cc(-c2ccccc2)nc2ccccc12)c1cc(-c2ccccc2)nc2ccccc12,inactive: 3.08 µM
15,NNC(=O)c1cc(Cl)ccc1NC(=O)C12CC3CC(CC(C3)C1)C2,inactive: 21.5 µM
16,Nc1nc(N)nc(CCCCc2nc(N)nc(N)n2)n1,inactive: > 100 µM
17,N#C/C(=C\c1ccc(Cl)cc1)c1nc2ccccc2c(=O)[nH]1,inactive: > 100 µM
18,CCCCCCCCCCCCCC(=O)O[C@H]1CC[C@H](NC(=O)[C@H](OC)[C@H](O)[C@@H](O)[C@H](O)/C=C/C(C)C)C(=O)NC1 [BENGAMIDE A],active: 0.0289 µM
19,Nc1ncnc2c1ncn2C1OC(CSC(F)F)C(O)C1O (stereo not given),inactive: > 100 µM
20,C=CCn1c(=O)c2ccccc2[n+]2c(-c3cccc([N+](=O)[O-])c3)csc12,inactive: 63.4 µM
21,COC(=O)CNC(=O)C(Cc1ccccc1)NC(=O)c1ccc(-c2ccc(Cl)cc2Cl)o1 (stereo not given),inactive: 23.1 µM
22,CC1=C(/C=C/C(C)=C/C=C/C(C)=C/C=C/C=C(C)/C=C/C=C(C)/C=C/C=C(C)/C=C/C=C(\C)C(=O)O)C(C)(C)CCC1,inactive: > 100 µM

row,Compound,GI50
1,COC(=O)CCCC(=O)/C(=N\Nc1ccc(Cl)cc1)Nc1c(Cl)cccc1Cl,inactive: 59.6 µM
2,C=C1CCC2C(C)(CO)C(O)CCC2(C)C1C/C=C1/CCOC1=O (stereo not given),inactive: > 100 µM
3,CC1CSC(=S)N1C(=O)N1C(=S)SCC1C (stereo not given),inactive: 42.4 µM
4,C[C@]12CC[C@@H]3c4ccc(O)cc4CC[C@H]3[C@@H]1CC[C@@H]2OC(=O)CCc1ccccc1,inactive: 20.6 µM
5,Nc1nc2c(ncn2Cc2ccccc2CCO)c(=O)[nH]1,inactive: > 100 µM
6,CC(=O)Oc1cc2c[n+](C)c3c4cc(OC(C)=O)c(OC(C)=O)cc4ccc3c2cc1OC(C)=O,inactive: 3.63 µM
7,O=C(O)Cc1cccc2c(=O)cc(-c3ccccc3)oc12 [MITOFLAXONE],inactive: > 250 µM
8,CN(C)c1ccc(/C=C(\NC(=O)c2ccccc2)C(=O)NCC(=O)O)cc1,inactive: > 100 µM
9,Cc1ccc(S(=O)(=O)N/N=C(\C(=O)Nc2cccc([N+](=O)[O-])c2)c2nc3ccc([N+](=O)[O-])cc3nc2O)cc1,inactive: > 100 µM
10,Nc1nc(O)c2[nH]cnc2[n+]1[O-],inactive: > 100 µM
11,CC1=C(C(=O)N(C(C)C)C(C)C)CC(C(=O)N(C(C)C)C(C)C)=C(C)N1,inactive: > 100 µM
12,O=C1/C(=C\c2cccs2)Oc2ccccc21,inactive: > 100 µM
13,COc1ccc2c(c1OC)C(C=C(c1ccccc1)c1ccccc1)CN(C)C2 (stereo not given),inactive: 27.4 µM
14,CC1(C)CCC[C@](C)([C@H]2CC[C@]3(C)[C@@H]2[C@H](O)C[C@@H]2[C@@]4(C)CC[C@H](O)C(C)(C)[C@@H]4[C@H](O)C[C@]23C)O1,inactive: 18.9 µM
15,CC(C)N(CCn1c2c3ccccc3ccc2c2oc(=O)c3ccccc3c21)C(C)C,inactive: > 100 µM
16,NNC(=O)C(=O)N/N=C1\CCCC1C(=O)CCC(=O)Nc1cccc(Cl)c1 (stereo not given),inactive: > 100 µM
17,CCCC(=O)OC[n+]1cccc(-c2c(COC(=O)NC(C)C)c(COC(=O)NC(C)C)c3n2CCC3)c1,inactive: > 100 µM
18,Cc1c(-c2ccccc2)c(C#N)c2nnn(C3CCCCC3)c(=O)n12,inactive: > 100 µM
19,CC(=O)C1=CCC2c3[nH]c4ccccc4c3CCN2C1 (stereo not given),inactive: > 100 µM

# Reference: ChEMBL document CHEMBL1201862, “PubChem BioAssay data set” (2004)
